The supplement of paper PMC12645437, “Orthogonal IMiD-Degron Pairs Induce Selective Protein Degradation in Cells” (ACS Chemical Biology, 2025)
Some of the results follow.

What follows are sequences tested against no compound (DMSO) (assay: log2 fold change of degron read counts, EGFP-low vs EGFP+ sorted cells; higher = lower degron-EGFP level without compound (poor expression or instability)). Conditions: compound: DMSO control; 18 h.
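Note: jurkat cells carrying a lentiviral library of mutant zinc finger degrons fused to EGFP plus mCherry, mCherry+ cells FACS sorted, degron abundance counted by next-generation sequencing.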

Sequence | log2 fold change of degron read counts
FHCEICGRRFTQKGNLLRHIKL | -0.672
FACPICGHYFTQKGNLLRHIKL | 0.279
FYCNVCGAHFTQKGNLLRHIKL | -0.214
FECPQCGANFTQKGNLLRHIKL | -1.33
FWCNVCGAAFTQKGNLLRHIKL | 0.0742
FRCPVCGAFFTQKGNLLRHIKL | 0.832
LLCNQCGFCCTQKGNLLRHIKL | 0.891
FGCSVCGHFFTQKGNLLRHIKL | 1.09
FDCEQCGAIFTQKGNLLRHIKL | -0.723
FICNQCGHYFTQKGNLLRHIKL | 0.582
FLCNQCGRTFTQKGNLLRHIKL | -1.4
FNCNQCGRCFTQKGNLLRHIKL | -0.102
FSCPQCGAYFTQKGNLLRHIKL | -0.633
FICEICGHIFTQKGNLLRHIKL | -0.306
LFCNQCGFHCTQKGNLLRHIKL | 1.33
FYCNQCGAAFTQKGNLLRHIKL | -0.511
LQCEICGFICTQKGNLLRHIKL | -0.173
FQCNQCGHRFTQKGNLLRHIKL | -0.478
FKCPICGHAFTQKGNLLRHIKL | -0.538
FQCSVCGHHFTQKGNLLRHIKL | -0.49
FICPICGRAFTQKGNLLRHIKL | -0.205
FHCEICGARFTQKGNLLRHIKL | -1.51
FSCPVCGAYFTQKGNLLRHIKL | 0.687
LHCNQCGFVCTQKGNLLRHIKL | 0.234
FWCNQCGRWFTQKGNLLRHIKL | 1.44

Sequence | log2 fold change of degron read counts
FTCDVCGAVFTQKGNLLRHIKL | -1.14
FICPVCGAPFTQKGNLLRHIKL | -0.0999
FGCEICGAHFTQKGNLLRHIKL | -0.853
FNCEICGRKFTQKGNLLRHIKL | -0.351
FRCNQCGAEFTQKGNLLRHIKL | -1.28
FSCPQCGALFTQKGNLLRHIKL | -0.646
FECDVCGAEFTQKGNLLRHIKL | -3.72
FYCEICGASFTQKGNLLRHIKL | -0.911
FWCPICGHWFTQKGNLLRHIKL | 1.87
FMCNQCGHAFTQKGNLLRHIKL | -0.386
FKCNQCGHYFTQKGNLLRHIKL | -0.446
FTCEQCGAEFTQKGNLLRHIKL | -3.11
FACEICGRFFTQKGNLLRHIKL | -0.99
FLCPICGRTFTQKGNLLRHIKL | -0.815
FNCSVCGHPFTQKGNLLRHIKL | -0.65
LWCEICGFKCTQKGNLLRHIKL | 1.1
FDCNICGATFTQKGNLLRHIKL | -1.96
FKCSVCGHMFTQKGNLLRHIKL | -0.517
FNCDICGAWFTQKGNLLRHIKL | -0.169
FVCDICGASFTQKGNLLRHIKL | -2.18
FECPICGRCFTQKGNLLRHIKL | -0.12
FECSVCGHEFTQKGNLLRHIKL | -1.36
FSCPVCGATFTQKGNLLRHIKL | -0.813
LMCPICGFKCTQKGNLLRHIKL | 0.975
FDCEICGRTFTQKGNLLRHIKL | -1.94
